Series [1] concerns the molecule itself. The series is described as follows: reducing SDS-PAGE and western blotting. (Immunoblotting shows a protein as a band on a membrane.)
Series [2] concerns the molecule itself. The series is described as follows: non-reducing SDS-PAGE and western blotting.

Where “and” joins values, the source holds several entries; their conditions need not be identical. Equal values may be shown once.

B1: recombinant human wild-type mannan-binding lectin (MBL) (natural protein)
chain: not shown
The stoichiometry N is a count of units in the complex or per binding partner. B1: the “stoichiometry N” value was 2 in series [1]; 3 and 4 in series [2].

For the origin of these results see article PMC3493102 (Molecular Medicine Reports, 2012).
